Results: PMC12136788
The other results are listed elsewhere or left out.

T1: UNK ZnF1-3 (human, UniProt Q9C0B0 31-174)
T1 sequence: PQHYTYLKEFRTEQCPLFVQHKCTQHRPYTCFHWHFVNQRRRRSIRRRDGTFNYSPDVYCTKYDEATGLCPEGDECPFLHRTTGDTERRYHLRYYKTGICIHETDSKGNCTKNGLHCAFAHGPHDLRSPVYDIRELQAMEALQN

B1: 23631571_23631691_891_3pUTR_ENSG00000182247_ENST00000335798|human|control|control (ssRNA)
RNA: GGGAGUUCUACAGUCCGACGAUCACAACAAAAAAAACAAAACCACACAGUAAUACAAAGCUUUGUAAGAAAGCUCUUACUAUUACAGCUCCAACAUUGUUUGCACUGAAAACAAAAGUUCCCAUCUAUGAUGAGGUGGGAAAACAACAGAGGAUUGAGCAUCA
B2: chr11:100882373:100882374:+_ENSMUSG00000019302_ENSMUST00000044721|mus_mus|mus_mus_mus_hu_True|38_38 (ssRNA)
RNA: GGGAGUUCUACAGUCCGACGAUCUUCCUGGUUUGUGUUGAUUUCCUUCAGUUCAUUUUCAAUCUUCUCAAAAUUGGCCUCUAAGUCAAUCAUGUCCCGAGGGAAGGGAACCUCUGGGUUUUCACCGGUGUCCAUAAUCGGAAUCAACAGAGGAUUGAGCAUCA
B3: chr8:95500983:95500984:-_ENSG00000164944_ENST00000437199|hu_hu|hu_hu_hu_mus_True|28_78 (ssRNA)
RNA: GGGAGUUCUACAGUCCGACGAUCAGAACACAUCUAUCGAGUAAAGGACCGUACAUGGACGACCUCUCCACUGCCUCCACUAACAAACUUUCCUCUCGAGCCUCCACCUGCCGCUAUUGUACUAGCCCAGGACGGUCCCAGGCCCAACAGAGGAUUGAGCAUCA
B4: 18846305_18846425_8591_CDS_ENSG00000157106_ENST00000446231|human|control|control (ssRNA)
RNA: GGGAGUUCUACAGUCCGACGAUCUUCAAUUUCUUUCAACUGAUCUUCACAAACUGGCACAGUGACAGCUUCCUGUUUCAAGCGUUCCACUUGUCUAAUAAGUCUGCUGUUGAUGUCUGCUGCGUAUCGCUGCAGGGUCAUUUCCAACAGAGGAUUGAGCAUCA
B5: chr2:5814250:5814251:-_ENSMUSG00000025816_ENSMUST00000102981|mus_hu|mus_mus_mus_hu_True|38_38 (ssRNA)
RNA: GGGAGUUCUACAGUCCGACGAUCUUCCUUUCCGGUUUCUGAAUUUCUGGUAGAACUGCACAGAAUGGUUUGAUAACUUCUAAAAAUUUGAUGCCCAUGGCGGCGGCUGGGGAGGCCCAGGGGGAAACCGCGGCCUCGGCGCUGCAACAGAGGAUUGAGCAUCA
B6: 58038583_58038703_312_CDS_ENSMUSG00000024597_ENSMUST00000115366|mouse|control|control (ssRNA)
RNA: GGGAGUUCUACAGUCCGACGAUCCACCUGGAAGCGGCUCUGGCUGGGGGUGGGCCCCAGAGGUCUGCCCAGCCCAUCGCCCGCCGCUGGGGUUCCCUCUCCGCGCACCCCGCCGCCAGCCUGCCUCCCAGCCGUAGUAGCAUCCAACAGAGGAUUGAGCAUCA
B7: chr7:135612270:135612271:-_ENSG00000105887_ENST00000393085|hu_mus|hu_hu_hu_mus_False|8_8 (ssRNA)
RNA: GGGAGUUCUACAGUCCGACGAUCGUUUUUUUCUGAGAUGUUAAAUAGUACUUCAGUGGAAAACAAAACUUAACCUUUUAUUAAUGCGUGUUGUACCAAAAGCAGACAUUUUAGCUUCAUUUAUUCACUCAAAAUAUCAUUAAGCAACAGAGGAUUGAGCAUCA
B8: chr1:163116941:163116942:-_ENSG00000143248_ENST00000313961|hu_hu|FALSE|FALSE (ssRNA)
RNA: GGGAGUUCUACAGUCCGACGAUCUACAAGCUGAAGAUAUCUUAAUUAAUAACAGGGCAGGAAGAAUUGAGUGGGGAAAGAAGGCCUUCGGACAGUAGAUAAGUAUCCAAAGCAGUGUGGGCAAAAAGAGUAAGCAACAUCCCCCAACAGAGGAUUGAGCAUCA
B9: chr5:102612083:102612084:+_ENSG00000181751_ENST00000319933|hu_hu|FALSE|FALSE (ssRNA)
RNA: GGGAGUUCUACAGUCCGACGAUCUAGAUUGAGGUAGUCCAGAGAUUUGGAGUGAGCCCUCUUACCUUUAAGAAGACAAAGAGGCAGAGGCCCAUGGAGGGCCUUGUAAGGUUCAUAAGGUAAAGAUUUAGUGCACUUGUCUCCCAACAGAGGAUUGAGCAUCA
B10: chr1:82725849:82725850:+_ENSMUSG00000026150_ENSMUST00000078332|mus_mus|motif|central (ssRNA)
RNA: GGGAGUUCUACAGUCCGACGAUCGGACCCUCAUUCGCUGACUAAUACCUUCGGUGUAUUCCAUUUCAUACUGAAUUCGACGGAUUUCUGCCAUCUCAGCAGCAGUGGGAGAAGGAAAUGCUGCCCCACUCACCAAAUGUGAAACAACAGAGGAUUGAGCAUCA
B11: 120566793_120566913_4174_3pUTR_ENSMUSG00000032890_ENSMUST00000071093|mouse|control|control (ssRNA)
RNA: GGGAGUUCUACAGUCCGACGAUCCUGCUGAAGAGGUGAUGUUCAGAGUCUGGUGAGCUGAGAGGCAAGAUGAGAGCGCCUCUGGAGCCGGUUCCUCCCCAAAGGAUCAAAUGUCCCUGUCAAACCAAGACUUGGCCCAUUUCCCAACAGAGGAUUGAGCAUCA
B12: chr1:163115838:163115839:-_ENSG00000143248_ENST00000313961|hu_hu|motif|central (ssRNA)
RNA: GGGAGUUCUACAGUCCGACGAUCUGGCUUAGUUUGAUUCUGUUACUAAAUUCUGUGAAUCAUUAUUUAAUCAAAUCGGCGGAAGAUUAGAAAAAAUUCUAGCAAGACUUAUAAUCAUGAAAUACAGAAUUAAAAGUUUAAACCCAACAGAGGAUUGAGCAUCA
B13: chr7:97836282:97836283:+_ENSG00000164715_ENST00000297293|hu_hu|motif|central (ssRNA)
RNA: GGGAGUUCUACAGUCCGACGAUCAGGGAGGGAGGUGUGAGGUCGCCCAUGACCACAGGGGCUCGUGACGAUGUGACGAAGCGGCACUGGGAGCACUCGGGCCCUUUCAAAGCCAGAAGAGAACCUGGGGCUUAAUGCAGAACGCAACAGAGGAUUGAGCAUCA
B14: chr8:117878989:117878990:-_ENSG00000164754_ENST00000297338|hu_hu|hu_hu_hu_mus_True|48_68 (ssRNA)
RNA: GGGAGUUCUACAGUCCGACGAUCCCAGAGGCCCUCGUUUACUGAGGACAAAAUGUGCGUAGAACAUUGUUCUGGCUUGCUAUGAAAACAGAAGAAACCUGGAUCUCGGCGGGGAGCCGGGAGGGGUGGGUGGCCCGGGGAGGGCAACAGAGGAUUGAGCAUCA
B15: chr19:47656230:47656231:+_ENSG00000142230_ENST00000270225|hu_hu|FALSE|FALSE (ssRNA)
RNA: GGGAGUUCUACAGUCCGACGAUCUAGAUUGGCAAAUGUGUAUCCAUGGUAGCCAAAAACAUCUCCUGUAAAGAACUUGAUGCUAUUUUUGUGACAGAUCUGGUCAACUUUAACUAUGACAUCCCUGGAGCAGCAAGUCAGACACAACAGAGGAUUGAGCAUCA
B16: chr3:10015032:10015033:+_ENSMUSG00000027533_ENSMUST00000029046|mus_mus|mus_mus_mus_hu_True|78_78 (ssRNA)
RNA: GGGAGUUCUACAGUCCGACGAUCGUUUUUACCAUCACAAGUGAUGAUACAAUCUGGCUUGGCCAUGGCGCCCAUUUUUCGCAAAGCUAUUCCCACUCCUAGCUCCUUCAUGUAUUCAUCAAAGCCUUUGCUGUCCACCAGGCGCAACAGAGGAUUGAGCAUCA
B17: chr13:51516861:51516862:+_ENSMUSG00000067586_ENSMUST00000087978|mus_mus|motif|central (ssRNA)
RNA: GGGAGUUCUACAGUCCGACGAUCCUUGGUGACAUAGAGAAGGGCAAGGCCAAUGAUGGAGCAGAACUUCUUGGCAGUGACCGGUAUACACCAGGAGUGACAUGAGGGGAAGUCUUUAGUUAGUCAGACCAGGGUUACCUAAGGCAACAGAGGAUUGAGCAUCA
B18: chr2:91395433:91395434:+_ENSMUSG00000040549_ENSMUST00000099716|mus_hu|motif|central (ssRNA)
RNA: GGGAGUUCUACAGUCCGACGAUCUGGCUUAAGCAAGAUGAUUUUGGAACCAAAUUCACUUAAGGCUUUCCUCAGUGUCUCGGUACAGGCCACUAUGAUCUUGGGAUUCUUAUUGUCCAAGCCUUUCAGGAGCUCUUCUUGAACCAACAGAGGAUUGAGCAUCA
B19: 37392173_37396547_463_3pUTR_ENSG00000082068_ENST00000265107|human|control|control (ssRNA)
RNA: GGGAGUUCUACAGUCCGACGAUCGUAAAGGAGGGCCAAUUAACUCAUCAUCAGAAGAGUCAGAACUCUGUUCACUUUCACUGCUGCUCGUAUCCCUGGAAGAUGAUUUGGAGCAAUCUCUGACCACAUUUGAUCUUGAGGAUGCAACAGAGGAUUGAGCAUCA
B20: 92123618_92123828_3054_CDS_ENSG00000127980_ENST00000248633|human|control|control (ssRNA)
RNA: GGGAGUUCUACAGUCCGACGAUCAGGACAGUAUACACAUUUAUCUAGUCGACCAGGCCUAAGCAGGGCAGGGUCAAUCAAGUCAGGGCGACUAGUAGCAGCCAAUACAUAAACACCCUGUAAGCCUUCUACUCCAUCCAACUGCAACAGAGGAUUGAGCAUCA
B21: chr1:58468927:58468928:-_ENSMUSG00000026034_ENSMUST00000148330|mus_mus|mus_mus_mus_hu_False|48_108 (ssRNA)
RNA: GGGAGUUCUACAGUCCGACGAUCAAUCUAUAAUUACGAUGUUCAUUACCUUAGCUAUGUACUUAAUGAACCAAAUUACCCAAACAACAUAAAAUGUGCAAUAUAAAAAUGUUAAGAAUUUACAAAGCUGUACAAAAUAACUUACAACAGAGGAUUGAGCAUCA
B22: chr7:130122267:130122268:+_ENSMUSG00000030779_ENSMUST00000098062|mus_mus|FALSE|FALSE (ssRNA)
RNA: GGGAGUUCUACAGUCCGACGAUCAUUUAUAUCCAUAUUCAACUGAACUGUCAUCAAAAUACAAUUUAUUUACAGUGGGUGCUAUGGUCAGUGGGUAUUCUAAGUGAGUUACGUCACUGAAACAUUAUAAAGGUAAAAGCAAUUCAACAGAGGAUUGAGCAUCA

Target: T1, UNK ZnF1-3
Assay: nsRBNS (natural sequence RNA bind-n-seq); RBNS binding buffer (assumed for nsRBNS): 25 mM Tris pH 7.5, 150 mM KCl, 3 mM MgCl2, 0.01% Triton X-100, 500 ug/ml BSA, 20 U/ml SUPERase-In, 4 C; UNK is unkempt and MSI1 is Musashi-1; names of the RNAs are library labels; protein concentration not given here; high values mean tight binding

Binder	binding signal [enrichment R]
B1	0.612
B2	0.542
B3	1.38
B4	0.47
B5	1.06
B6	1.13
B7	0.523
B8	2.84
B9	1.61
B10	0.919
B11	1.59
B12	1.14
B13	1.34
B14	1.56
B15	1.07
B16	0.827
B17	1.34
B18	0.948
B19	1.16
B20	0.803
B21	0.859
B22	1.75
